Several values for one entry are separate records, joined by “and”; a condition that tells them apart may be missing. Equal entries are not always repeated. Hit rate of the full screen: of about 16,000 compounds, about 40 (0.2%) were called active. Inconclusive results (about 1%) are left out. The call rests on the fitted dose curve; in most records, active means well fitted activation curve with a large enough effect; inconclusive means small, poorly fitted or top-dose-only effect, or another doubt; inactive means no such curve, though single readings can be large or run the other way. Some of the results follow.
On the % scale 0 is the no-effect control and ±100 the full control effect.

The assay addresses Rap guanine nucleotide exchange factor 4 (Homo sapiens) (UniProt Q8WZA2). The assay is described as follows: Validation qHTS for agonist of cAMP-regulated guanine nucleotide exchange factor 4 (EPAC2).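 Further: exchange makes BODIPY-GDP fluorescence drop when released from Rap1B; series mostly up to about 150 µM.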 The conditions noted are these: EPAC2 Rap1B BODIPY-GDP exchange, fluorescence; activation: stronger effect = higher value. In short, it runs like this: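 Fluorescent exchange assay: 100 nM EPAC2 with 250 nM RAP1B-BODIPY-GDP and 50 uM GDP; compound added, 5 min at room temperature, then read (ex 480/em 540 nm) every 5 min for 30 min. Normalized to 6.5 mM cAMP agonist control.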
UniProt Q8WZA2, sequence (Q8WZA2 whole entry, looked up): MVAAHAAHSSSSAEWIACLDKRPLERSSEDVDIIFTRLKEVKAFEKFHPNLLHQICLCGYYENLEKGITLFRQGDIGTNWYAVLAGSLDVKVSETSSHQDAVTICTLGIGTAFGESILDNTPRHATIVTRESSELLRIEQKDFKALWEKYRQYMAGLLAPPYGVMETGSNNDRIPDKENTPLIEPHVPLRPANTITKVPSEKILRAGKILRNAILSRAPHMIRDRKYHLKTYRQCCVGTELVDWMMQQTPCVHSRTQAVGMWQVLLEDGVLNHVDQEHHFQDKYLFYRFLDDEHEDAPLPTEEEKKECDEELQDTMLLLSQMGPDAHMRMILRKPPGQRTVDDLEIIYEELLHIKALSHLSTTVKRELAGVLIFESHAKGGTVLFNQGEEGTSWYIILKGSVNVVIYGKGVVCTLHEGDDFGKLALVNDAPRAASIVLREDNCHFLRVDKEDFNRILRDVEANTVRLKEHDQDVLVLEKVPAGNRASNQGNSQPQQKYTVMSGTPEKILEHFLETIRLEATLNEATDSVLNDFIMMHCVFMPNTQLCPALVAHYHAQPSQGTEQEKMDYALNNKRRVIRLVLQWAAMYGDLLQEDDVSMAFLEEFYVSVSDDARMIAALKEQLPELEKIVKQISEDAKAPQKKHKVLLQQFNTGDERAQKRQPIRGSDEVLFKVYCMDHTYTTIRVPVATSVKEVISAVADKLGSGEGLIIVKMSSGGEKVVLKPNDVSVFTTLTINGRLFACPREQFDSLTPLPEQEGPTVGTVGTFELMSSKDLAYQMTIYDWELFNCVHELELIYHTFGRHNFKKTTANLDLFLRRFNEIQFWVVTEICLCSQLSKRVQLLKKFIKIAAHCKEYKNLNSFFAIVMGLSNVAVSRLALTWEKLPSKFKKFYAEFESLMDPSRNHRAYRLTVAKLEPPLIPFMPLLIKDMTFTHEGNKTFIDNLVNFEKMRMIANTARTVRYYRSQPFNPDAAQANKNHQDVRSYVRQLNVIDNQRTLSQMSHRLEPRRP
(In general: qHTS replaces the single test concentration by a dilution series.)
Regarding `O=C(c1cccc(F)c1)N1CCC[C@@]2(CCN(c3ccccn3)C2)C1`, the activation is inactive: -7.52%.
In the case of `Cc1cnc(-n2ncc(C(=O)NCCCc3ccncc3)c2C)nc1-c1ccc(F)cc1`, the activation was inactive: -8.15%.
As for `CCC1CN(CCNC(=O)c2ccc(N3CCOCC3)cc2)Cc2cc(OC)ccc2O1` (stereo not drawn), the activation was inactive: 4.69%.
In the case of `O=c1[nH]cnc2c1nc(Cl)n2C1OC(CO)C(O)C1O` (stereo not drawn), the activation was inactive: -1.6%.
On to `CCCCCCCCCCCCCCCC(=O)O[C@@H]1CC(C)=C(/C=C/C(C)=C/C=C/C(C)=C/C=C/C=C(C)/C=C/C=C(C)/C=C/C2=C(C)C[C@@H](OC(=O)CCCCCCCCCCCCCCC)CC2(C)C)C(C)(C)C1`, for which the activation was inactive: -66.8%.
The result for `O=C(C1CCCCC1)N1CC(=O)N2CCc3ccccc3C2C1` (stereo not drawn) reads inactive: -5.05% and inactive: 12.1% and inactive: -16.6%; that for `COc1ccc(NC(=O)N2CC3(CCN(C(=O)c4cc(C(F)(F)F)cc(C(F)(F)F)c4)CC3)C2)cc1`, inactive: -31.4%; that for `C[C@@H]1CCC(=O)N(C[C@@H](C)CC#N)CC1`, inactive: 6.58%.
For the compound `COC(=O)N1CCC2(CCCN(Cc3ccccc3OC)C2)CC1`, the activation is inactive: 1.72%.
The figure for `Cn1c2ccccc2c2cc(C(=O)N3CCOc4ccc(C(C)(O)CCn5cccn5)cc4C3)ccc21` (stereo not drawn) is inactive: -8.04%; for `NCC(O)COc1cccc2ccccc12` (stereo not drawn) it is inactive: 2.59%; for `Fc1ccc(Nc2ncncc2-c2ccoc2)cc1` it is inactive: 4.95%.
As to `O=S(=O)(O)c1ccc(O)cc1`, the activation was inactive: -1.89%.
As for `Cc1ccccc1CNc1ncnc2c1ncn2C1OC(CO)C(O)C1O` (stereo not drawn), the activation was inactive: -0.0522%.
`CC(O)CO` (stereo not drawn): the activation was inactive: -2.59%.
Take `CC1(C)CCCC2(C)C3C(O)CC2(C)C(O)C31` (stereo not drawn): the activation was inactive: -10.7%.
As to `COCCNc1ncnc2ccc(-c3c(C)noc3C)cc12`, the activation was inactive: -15.7%.
The result for `COc1ccc(CNCC(O)COc2ccc3[nH]c(=O)ccc3c2)cc1OC` (stereo not drawn) reads inactive: -9.54%; that for `Cc1cccnc1-c1cccc2c1OC(CNC(=O)Cn1cncn1)C2` (stereo not drawn), inactive: 2.99%.
The result for `Cc1oc(-c2ccccc2NC(=O)c2ccsc2)nc1CN(C)Cc1ccc2c(c1)CCCN2C` reads inactive: 13.6%; that for `Cc1cnc(SCC2CCCO2)nc1C1CCCN(C(=O)c2ccc(S(N)(=O)=O)cc2)C1` (stereo not drawn), inactive: -1.51%; that for `C/C=C(\C)C(=O)OC1c2c(ccc3ccc(=O)oc23)OC(C)(C)C1OC(C)=O` (stereo not drawn), inactive: -1.12%.
Turning to `CC(=O)NCCCS(=O)(=O)O`, the activation is inactive: -5.02%.
The figure for `COc1ccccc1-c1ccnc(-n2ncc(C(=O)NC3CCCN(Cc4ccccc4)C3)c2C)n1` (stereo not drawn) is inactive: -10.1%; for `O=P(O)(O)O` it is inactive: 14.3%; for `COc1ccc(NC(=O)N2CC[C@@]3(CCCN(C(=O)c4cc(C(F)(F)F)cc(C(F)(F)F)c4)C3)C2)cc1` it is inactive: -45.4%.
Turning to `O=C(c1cccc(N2CCCC2=O)c1)N1CCC(Oc2cccc(CN3CCN(c4ccccn4)CC3)c2)CC1`, the activation is inactive: -26.9%.
Turning to `NC(N)=NC(N)=NCCc1ccccc1`, the activation is inactive: -9.72% and inactive: 1.08%.
For the compound `COc1ccccc1-c1cc(N(C)Cc2ccco2)ncn1`, the activation was inactive: 4%.
Regarding `Cn1c(=O)c(-c2cccc(Cl)c2)nc2cncnc21`, the activation was inactive: 4.54%.
For the compound `c1ccc2c(NC3CC3)nc(-c3ccoc3)nc2c1`, the activation was inactive: -14.5%.
The figure for `CCOC(=O)O[C@]1(C(=O)COC(=O)CC)CC[C@H]2[C@@H]3CCC4=CC(=O)C=C[C@]4(C)[C@H]3[C@@H](O)C[C@@]21C` is inactive: -25.8%; for `Cc1nc2cnc(N(C)C)nc2n(C[C@H]2CCCO2)c1=O` it is inactive: 3.26%.
Consider `O=C(NCC1Cc2cccc(-c3ccccn3)c2O1)c1cnn2cccnc12` (stereo not drawn), for which the activation was inactive: -1.78%.
Turning to `Cc1cnc(SCc2ccccn2)nc1C1CCCN(C(=O)c2ccc3[nH]c(C)c(C)c3c2)C1` (stereo not drawn), the activation is inactive: -8.56%.
For the compound `Cc1noc(C)c1-c1nc(N2CCN(C)CC2)c2ccccc2n1`, the activation was inactive: -8.41%.
With `CN(Cc1ccco1)c1cc(-c2ccccc2C(F)(F)F)ncn1`, the activation is inactive: -0.577%.
The figure for `CC(C)C[C@H](NC(=O)[C@H](O)[C@H](N)Cc1ccccc1)C(=O)O` is inactive: -25.6%; for `CCC1CN(CC(=O)NC(c2ccccn2)C(F)(F)F)Cc2cc(OC)ccc2O1` (stereo not drawn) it is inactive: -15.1%; for `N#Cc1cc2c(OCC(O)CN3CCN(C(c4ccccc4)c4ccccc4)CC3)cccc2[nH]1` (stereo not drawn) it is inactive: 3.77% and inactive: 15.8%.
On to H-LVVYPWTQR-OH, for which the activation was inactive: 5.88%.
On to `CC(C)(C)NCC(O)COc1cccc2c1CCC(=O)N2` (stereo not drawn), for which the activation is inactive: -27%.
In the case of `N#C/C(=C\c1ccc(-c2cc(Cl)ccc2Cl)o1)C(=O)Nc1cccc2ncccc12`, the activation is inactive: -31.5%.
The figure for `Cc1ccc(C)c(CN2C[C@H](Sc3ccccn3)C[C@H]2C(=O)Nc2ccc3sc(C)nc3c2)c1` is inactive: -7.66%; for `CN1CCN(c2ncnc3ccc(-c4ccc5c(c4)OCO5)cc23)CC1` it is inactive: -3.74%.
Consider `C[C@@H](CSc1ccccc1)CN1CC[C@H](O)CCC1=O`, for which the activation was inactive: -11.4%.
For the compound `Cn1c(=O)c(-c2cccs2)nc2cnc(OCc3ccccc3)nc21`, the activation is inactive: -7.81%.
With `O=S(=O)(c1ccccc1)N1CCC2(CC1)CN(Cc1nccs1)C2`, the activation is inactive: 0.857%.
With `CC/C=C\C/C=C\C/C=C\CCCCCCCCCC(=O)O`, the activation is inactive: -0.394%.
The figure for `CCCC(=O)O[C@]1(C(=O)COC(=O)CC)CC[C@H]2[C@@H]3CCC4=CC(=O)CC[C@]4(C)[C@H]3[C@@H](O)C[C@@]21C` is inactive: 2.43%.
Consider `COc1ccc(OC)c(C(O)CNC(=O)CN)c1` (stereo not drawn), for which the activation was inactive: -5.51% and inactive: -0.879%.
Turning to `CC(S)C(=O)NCC(=O)O` (stereo not drawn), the activation is inactive: -3.77%.
The result for `CN(C)CCN1C(=O)c2ccccc2N(C)c2ccccc21` reads inactive: -18.6%; that for `CC(=O)N1CCC2(CC1)CN(Cc1ccc(C#N)cc1)C2`, inactive: 3.2%; that for `CN=C(NC#N)NCCSCc1csc(N=C(N)N)n1`, inactive: 2.39% and inactive: -1.99%.
As to `Nc1ncc2[nH]cnc2n1`, the activation was inactive: 5.11%.
Consider `COc1cccc(-c2nc3cc(SC)ccc3cc2CN(C(=O)c2csc(C)n2)C2CC2)c1`, for which the activation is inactive: -16.5%.
In the case of `CC(C)NCC(O)COc1ccccc1-n1cccc1` (stereo not drawn), the activation was inactive: -6.22%.
For the compound `Cn1c(=O)c(-c2cc(F)cc(F)c2)nc2cnc(Oc3ccccc3)nc21`, the activation is inactive: -2.97%.
The result for `C=CC(=O)Nc1cc2c(Nc3ccc(F)c(Cl)c3)ncnc2cc1OCCCN1CCOCC1` reads inactive: -20.7%.
On to `CN(C)c1ncc2nc(-c3ccc(F)cc3)c(=O)n(CCc3ccccc3)c2n1`, for which the activation is inactive: 1.33%.
The figure for `Cc1cccc(N(C)C(=S)Oc2ccc3c(c2)CCC3)c1` is inactive: 13.3%.
The figure for `COc1ccc(NC(=O)N2CC3(CCN(C(=O)c4ccncc4)CC3)C2)cc1` is inactive: -10.6%; for `CC(C)[N+]1(C)[C@@H]2CC[C@H]1CC(OC(=O)C(CO)c1ccccc1)C2` (stereo partly drawn) it is inactive: 2.46% and inactive: -1.87%.
`C[C@](O)(C(=O)Nc1ccc(S(=O)(=O)c2ccccc2)cc1)C(F)(F)F`: the activation was inactive: 4.3%.
For `COC(=O)C1CCN(Cc2ccc3c(c2)CN(C(=O)c2cc(-c4ccc(C)o4)[nH]n2)CCO3)CC1`, the activation was inactive: -5.45%.
For the compound `CN(C)Cc1ccccc1-c1nccc(NCc2cccs2)n1`, the activation was inactive: 1.02%.
On to `COC(=O)N1CCC2(CC1)CN(c1ccc(-c3ccccc3)cc1)C2`, for which the activation is inactive: 5.3%.
The figure for `C=CCN1CCc2nc(N)sc2CC1` is inactive: -12.1%; for `CCC1(C2CCN(Cc3cccc4ccccc34)CC2)NC(=O)N(Cc2ccc3c(c2)OCO3)C1=O` (stereo not drawn) it is inactive: -3.5%; for `Cc1ccc(C(=O)Nc2cccc(-c3nc(CNC(=O)[C@@H]4C[C@@H](C)NC(=S)N4)c(C)o3)c2)s1` it is inactive: -13.2%.
The figure for `CN(Cc1ccco1)c1nc(-c2ccoc2)nc2ccccc12` is inactive: -6.08%; for `O=C(NCC1CCC2(CCN(Cc3cccc4ncccc34)CC2)O1)c1ccccc1` (stereo not drawn) it is inactive: -0.825%.
For the compound `CN(C)C(=O)c1ccc(-c2cc(Nc3ccccc3)ncn2)cc1`, the activation is inactive: -18.3%.
As to `CC(=O)N/N=C/c1ccc([N+](=O)[O-])o1`, the activation is inactive: -11.9%.
On to `Cc1noc(C)c1-c1ccc2ncnc(NCc3ccccc3)c2c1`, for which the activation was inactive: -29.2%.
For the compound `COc1ccc(-n2c(=O)c(-c3cc(F)cc(F)c3)nc3cncnc32)cc1`, the activation is inactive: -11.6%.
On to `OCC[N+]1(CCc2ccccc2)CCOCC1`, for which the activation is inactive: -14.3%.
With `Cc1cccc(CNc2cc(-c3ccc(N(C)C)cc3)ncn2)c1`, the activation is inactive: -11.8%.
The result for `CC(=O)C1=C(O)C=C2Oc3c(C(C)=O)c(O)c(C)c(O)c3[C@]2(C)C1=O` reads inactive: 8.06%.
`C[C@H]1O[C@@H](n2cc(F)c(=O)[nH]c2=O)[C@H](O)[C@H]1O`: the activation is inactive: -17.6%.
In the case of `Cc1ccc(CN2CCc3nnc(C(NS(C)(=O)=O)C(C)C)n3CC2)cc1C` (stereo not drawn), the activation was inactive: -15.7%.
The result for `COc1ccccc1-c1cncnc1NCc1cnc(C)cn1` reads inactive: -4.96%.
With `CCCCCCCCCCCCCCCCOCC(CO)OC` (stereo not drawn), the activation was inactive: -20.3%.
On to `CCOC(C)=O`, for which the activation is inactive: -37%.
For the compound `COc1cccc(-c2nc(NCc3ccc(OC)cc3OC)c3ccccc3n2)c1`, the activation is inactive: 21.2%.
For the compound `O=C(CCc1ccc(O)cc1)c1c(O)cc(O)cc1O`, the activation is inactive: -16.6% and inactive: -9.82% and inactive: -69.4%.
As to `COC(=O)[C@]12CCC(C)(C)C[C@@H]1[C@@H]1C(=O)C=C3[C@@]4(C)C=C(C#N)C(=O)C(C)(C)[C@@H]4CC[C@@]3(C)[C@]1(C)CC2`, the activation was inactive: -54.4%.

(Values after PubChem BioAssay AID1645887 (National Center for Advancing Translational Sciences (NCATS), 2021).)
